Experimental data taken from PubChem BioAssay AID1508624 (National Center for Advancing Translational Sciences (NCATS), 2021).
Screen size: about 48,000 compounds; about 120 (0.25%) were called active. Inconclusive results (about 4%) are left out. Calls follow the shape of the dose curve; as a rule, active = well fitted activation curve with a large enough effect; inconclusive = small, poorly fitted or top-dose-only effect, or another doubt; inactive = no such curve, though single readings can be large or run the other way. Some of the results follow.

Test: Primary qHTS for Identification of Small Molecule Activators of Huntingtin-Antisense Promoter Activity; also: nearly all actives have a fitted effect of over 55% in size
Settings: HEK293 HTT-AS promoter firefly luciferase reporter, 24 h; series mostly up to 57.5 µM; activity change, positive = activation: at the top concentration
Procedure, shortened: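 Luminescence was read after Dual-Glo reagent and a 10 min room-temperature incubation. Values were normalized to vehicle (0% activity) and zero RLU (-100% activity). Reporter HEK293 cells had been exposed to compounds (up to 57.5 uM final) for 24 h.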

Activity change, positive = activation, inactive:
CCC(C)NC(=O)c1cc2n(n1)CCCN(Cc1ccc(C)cc1)C2=O (configuration not stated) -7.34%
Cc1ccc(N2CCN(C(=O)c3cccn4c(=O)c5ccc(Cl)cc5nc34)CC2C)cc1 (configuration not stated) 2.01%
CCOC(=O)c1ccccc1NC(=O)N1CCC(CN2CCOCC2)CC1 -8.84%
CCN1CCN(C(c2ccccc2Cl)c2sc3nc(-c4ccco4)nn3c2O)CC1 (configuration not stated) -5.04%
CCOc1ccc(NC(=O)Cn2nc3c(cc2=O)CC(C)CC3)cc1 (configuration not stated) -5.13%
CCOC(=O)c1[nH]c2c(c1Cc1ccccc1)C(=O)CC(c1ccccc1)C2 (configuration not stated) -15.9%
Cc1ccc(-c2noc(-c3nnn(CC(=O)Nc4ccc(C)c(Cl)c4)c3N)n2)cc1 5.87%
CC(C)Oc1ccc(C(=O)NCC(c2ccc(N(C)C)cc2)N2CCc3ccccc32)cc1 (configuration not stated) -21.6%
CCOc1ccc(N(CC(=O)Nc2ccc(OC)cc2)S(=O)(=O)c2ccc(Cl)cc2)cc1 1.12%
O=C(Nc1ccc(Br)cc1)c1cc(S(=O)(=O)NC2CCCC2)ccc1F -28.3%
Cc1ccc2c(C)c(C(=O)N(Cc3ccc(N(C)C)cc3)Cc3ccco3)oc2c1C -20%
O=C(CCSCCc1ccccn1)Nc1ccc(Cl)cc1 -8.56%
CCn1c(=O)c2sccc2n2c(CCC(=O)Nc3ccc(F)cc3)nnc12 -14.3%
COc1ccc2c(c1)c(N1CCCC1=O)c(C(=O)Nc1cc(C)c(Cl)cc1OC)n2C -6.22%
CCN(c1ccccc1)S(=O)(=O)c1nnc(NC(=O)C2CCCCC2)s1 -11%
Cc1ccc2c(c1)cc1c(=O)n(Cc3ccccc3Cl)nc(C)n12 -0.915%
CC(=O)Nc1ccc(C)cc1-c1nc2ccccc2n(CC(=O)c2ccc(C)c(C)c2)c1=O -15.8%
CN1CCN(c2nc3c(S(=O)(=O)c4ccc(Cl)cc4)nnn3c3ccsc23)CC1 -9.32%
COc1ccc(S(=O)(=O)n2nc(C)c(S(=O)(=O)N3CCCCCC3)c2C)cc1C -9.86%
O=C(NCCc1csc(-c2ccc(C(F)(F)F)cc2)n1)C(=O)Nc1ccc(F)c(Cl)c1 -9.49%
CCOc1ccccc1NS(=O)(=O)c1ccc(N2CCCCS2(=O)=O)cc1 -6.85%
CCOC(=O)c1c(N)n(-c2ccc(CC)cc2)c2nc3ccccc3nc12 -21.4%
Cc1ccc(C)c(NC(=O)Cn2c(SCC(=O)NCc3ccccc3)nc3ccccc32)c1 -12.5%
O=C(CN1C(=O)CSc2ccc(S(=O)(=O)N3CCOCC3)cc21)NCCCN1CCCCC1 -1.57%
CC(C)CCCC(C)CCCC(C)CCCCC(C)CCCC(C)CCCC(C)C (configuration not stated) -0.709%
Cc1ccc(N(CC(=O)N2CCN(c3ccccc3)CC2)S(=O)(=O)c2c(C)noc2C)cc1 -22.4%
Cc1nc(-c2ccc(F)cc2)sc1CCNC(=O)c1cccs1 -8.98%
CC(=O)N1CCOc2cc(S(=O)(=O)NCc3ccccc3Cl)c(Cl)cc21 -6.02%
CCc1ccc(NC(=O)Cn2c(=O)n(-c3ccccc3C)c(=O)c3c2c2cc(OC)ccc2n3C)cc1 -39.9%
O=C(c1ccc2c(c1)N(Cc1cccc(Cl)c1)C(=O)c1ccccc1S2=O)N1CCC(Cc2ccccc2)CC1 (configuration not stated) -32.4%
CCOC(=O)c1c(S(=O)(=O)N2CCC(C(=O)Nc3ccc(C)c(Cl)c3)CC2)c(C)n(C)c1C -4.98%
O=C(c1cccc([N+](=O)[O-])c1)N1CCN(c2ccc(Nc3ccccc3)nn2)CC1 -15.8%
COc1nnc(-c2ccc(N3CCCCC3)c(NC(=O)c3ccc(C)cc3)c2)c2ccccc12 -18.7%
CC[N+](CC)(CC)CCOC(=O)C(C1CCCC1)C1CCCC1 -6.17%
O=S(=O)(c1ccc(-c2cnc(C3CC3)o2)cc1)N1CCN(c2ccc(F)cc2)CC1 -12.5%
CCn1nc(C)c2c(-c3ccccc3)cc(=O)n(C(C)C(=O)NCCc3ccc(Cl)cc3)c21 (configuration not stated) -28.6%
CCOc1ccc(NC(=O)CCCn2c(C)c3cnn(-c4ccccc4)c(=O)c3c2C)cc1 -5.95%
COc1ccc(OC)c(NC(=O)CSC2=Nc3ccccc3C3=NC(CC(=O)NCCc4ccccc4)C(=O)N23)c1 (configuration not stated) 14.2%
CCOc1cccc(CNCCCSc2nnnn2C)c1 -10.2%
Oc1c(C(c2ccccc2)N2CCCC2)sc2nc(-c3ccco3)nn12 (configuration not stated) -9.81%
COc1ccc(-c2onc(C)c2C)cc1S(=O)(=O)NCCc1ccccc1 -33.1%
CCOC(=O)Cc1ccc(NC(=O)NC(C)c2c(-n3cccc3)sc(C)c2C)cc1 (configuration not stated) -25%
COc1ccc(CCN2C(=O)N(c3cccc(OC)c3)C(=O)C2CC(=O)Nc2ccccc2)cc1 (configuration not stated) 0%
Cc1ccc(C)c(Cn2c(=O)n(-c3ccccc3)c(=O)c3c4c(sc32)CCCC4)c1 -16.2%
CCOC(=O)c1c(C)[nH]c(CCC(=O)NCc2cc(OC)c(OC)c(OC)c2)c1C 4.44%
COc1cc(-n2c(=O)c3ccccc3n(Cc3cccc(Cl)c3)c2=O)cc(OC)c1OC -28.5%
CCNC(=O)CC1C(=O)N(c2ccc(C)cc2)C(=O)N1CCOC (configuration not stated) -12.6%
COc1ccc(CNC(=O)CN2C(=O)CCn3nc(-c4cn(C)c5ccccc45)cc32)cc1 -2.75%
COc1ccc(CCNC(=O)CN(c2ccccc2)S(=O)(=O)N(C)C)cc1OC -22.4%
CC(=O)N1CCC(N(CCCOC(C)C)C(=O)Nc2ccc(C)c(C)c2)CC1 -6.34%
Cc1ccc(NC(=O)c2oc3ccc(S(=O)(=O)N4CCC5(CC4)OCCO5)cc3c2C)cc1Cl -19.7%
CCc1cccc(C)c1NC(=O)CSc1nc2ccccc2nc1Cc1ccccc1 -14.8%
COc1ccc(-c2nc3cc(NC(=O)COc4ccccc4C)ccc3o2)cc1 13%
O=C(CN1C(=O)CCSc2ccc(S(=O)(=O)N3CCCC3)cc21)Nc1cccc(F)c1 -7.88%
CCOC(=O)C(C)NC(=O)c1c2c(nc3ccccc13)C(=O)N(C1CCCCC1)C2 (configuration not stated) 3.01%
COc1cc(C(c2c(C)[nH][nH]c2=O)c2c(C)[nH][nH]c2=O)ccc1OC(=O)c1ccccc1OC 3.32%
COC(=O)CC1Oc2ccccc2-n2cc(-c3ccc(F)cc3)nc21 (configuration not stated) -22.1%
Cc1cccc(NC(=O)CSC2=Nc3ccccc3C3=NC(CCC(=O)NCc4ccco4)C(=O)N23)c1 (configuration not stated) -5.29%
COc1cc(OC)c(NC(=O)Cn2ncn3c(cc4cc(C)ccc43)c2=O)cc1Cl -0.424%
Cn1cc(C=C2C(=O)Nc3cccnc32)c2ccccc21 18%
COc1ccccc1CNC(=O)Cn1cc2c(n1)-c1c(oc(C(=O)N3CCOCC3)c1C)CC2 -24.8%
COC(=O)c1sccc1S(=O)(=O)N(CC(=O)Nc1cccc(C)c1C)c1ccc(C)c(C)c1 -25.8%
CC(C)CN(CCNC(=O)CCN1N=C(c2ccccc2)CCC1=O)CC(C)C -8.1%
CCSc1nc2ccccc2c(OCc2ccc(Cl)cc2)c1C(=O)OC -0.751%
COc1ccc2c(c1)c1c(c(=O)n(CCc3ccccc3)c(=O)n1Cc1cccc(F)c1)n2C -6.7%
Cc1ccc(-c2onc(C)c2C)cc1S(=O)(=O)Nc1ccccn1 -3.18%
CC(C)(C)OC(=O)N1CCC(c2c(C(=O)N3CCN(Cc4ccccc4)CC3)cnn2-c2cccc(Cl)c2)CC1 -19.9%
CCC(=O)N1CCc2cc(CNS(=O)(=O)c3ccc(CC(C)C)cc3)ccc21 -29.8%
CCN1CCN(c2ncc3c(n2)CCN(Cc2ccccc2C)C3)CC1 -12.9%
COc1ccc(-c2nc(CS(=O)CC(=O)NCCc3ccc(Cl)cc3)c(C)o2)cc1OC (configuration not stated) -14.2%
CC(C)CCNC(=O)C1CCN(C(=O)c2cc3sccc3n2Cc2ccc(Cl)cc2)CC1 -62.1%
Cc1ccc(CS(=O)(=O)c2ncc(Cl)c(C(=O)Nc3nnc(C(C)C)s3)n2)cc1 -91.5%
COc1cc(CN(C(=O)c2ccccc2F)C2CCS(=O)(=O)C2)cc(OC)c1OC (configuration not stated) 12.6%
Cc1cccc(N2CCN(C(=O)Cn3c(-c4cccs4)cc4ccccc43)CC2)c1C -23.7%
Cc1ccc2c(CC(=O)Nc3ccc(S(=O)(=O)N4CCCCC4)cc3)coc2c1C -33.7%
CCCS(=O)(=O)N1CC(=O)N(c2ccc(C)c(Cl)c2)C(C)(C(=O)NC2CCCCCC2)C1 (configuration not stated) -23.9%
CCCCNC(=O)CCCN1C(=O)c2ccccc2Sc2ncccc21 -14.2%
Oc1c(C(c2ccc(F)cc2)N2CCN(Cc3ccccc3)CC2)sc2nc(-c3ccco3)nn12 (configuration not stated) -21.5%
CN1C(=O)C2(c3ccccc31)N(c1cccc(C(F)(F)F)c1)C(=O)CS2(=O)=O (configuration not stated) -21.2%
COc1ccc(Nc2nn3c(=O)c4cc5c(cc4nc3s2)OCO5)c(OC)c1 -11.9%
Cc1cccc(N(C)S(=O)(=O)c2cc(-c3cnc(C4CC4)o3)ccc2C)c1 -45.5%
O=C(CCNS(=O)(=O)c1ccc2c(c1)CCN2C(=O)C1CC1)N1CCN(c2cccc(Cl)c2)CC1 -46.6%
CCOc1ccc(/C=C/C(=O)Nc2ccc3nc(N(CC)CC)cc(C)c3c2)cc1OC -15.1%
CCc1ccc(C2c3c(-c4ccccc4O)n[nH]c3C(=O)N2Cc2cccnc2)cc1 (configuration not stated) -37.7%
CCC(=O)N1c2ccc(S(=O)(=O)CCC(=O)Nc3ccc(OC)cc3OC)cc2CC1C (configuration not stated) -0.969%
O=C(NCC1CCN(Cc2ccccc2F)CC1)Nc1ccc(F)c(Cl)c1 -16%
COc1ccc(-c2nc3sc(CCNS(=O)(=O)c4ccccc4)c(C)n3n2)cc1 -11.6%
CC(C)c1ccc(N(CC(=O)O)S(=O)(=O)c2ccc3[nH]c(=O)c(=O)[nH]c3c2)cc1 -1.04%
COc1ccc(Br)cc1CNC(=O)CN1C(=O)c2cccnc2Oc2ccc(C)cc21 -25.3%
Cc1ccc2oc(C(=O)Nc3ccc(S(=O)(=O)Nc4nccc(C)n4)cc3)cc(=O)c2c1 -2.04% [at 11.5 µM, percent change from vehicle, -100% = no light]
Cc1ccc2ncc3c(-c4ccc(F)cc4)nn(CC(=O)Nc4ccccc4C)c3c2c1 -2.14%
Cc1ccc(S(=O)(=O)Cc2nc(-c3ccc(C(=O)NCCCOC(C)C)cc3)oc2C)cc1 13%
